Measured values from the BET-seq Pho4 binding data (Le et al. 2018).
The other results are listed elsewhere or left out. Values were computed here from the reads of four pooled replicates and scatter widely.

The sequences below were run against T1, Pho4 (S. cerevisiae) (UniProt P07270) (assay: relative binding free energy (BET-seq); higher = weaker binding). Details: reference: library average.
T1 sequence: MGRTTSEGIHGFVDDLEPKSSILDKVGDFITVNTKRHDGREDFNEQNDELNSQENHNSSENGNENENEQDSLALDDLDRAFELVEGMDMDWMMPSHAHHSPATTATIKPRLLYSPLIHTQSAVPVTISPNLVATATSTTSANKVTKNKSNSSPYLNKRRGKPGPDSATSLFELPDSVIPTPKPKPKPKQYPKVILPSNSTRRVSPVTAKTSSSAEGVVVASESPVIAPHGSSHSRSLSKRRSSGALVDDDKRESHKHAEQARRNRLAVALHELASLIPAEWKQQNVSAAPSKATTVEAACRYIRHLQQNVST

Sequence | relative binding free energy [kcal/mol]
CTAGTCACGTGGGTGA | -0.1
AAGGACACGTGAATTT | 0.32
TGTGTCACGTGCGCTT | -0.01
TCAAGCACGTGGTGTA | -0.19
TGAAGCACGTGGCTTG | -0.08
TCAGTCACGTGGAAAT | 0.37
TTGATCACGTGTATGA | 0.08
GGGAACACGTGGTGGT | -0.02
ATGGGCACGTGAGCTT | -0.01
TACGTCACGTGGATTG | 0.01
TGCAACACGTGCGGGG | -0.13
AACGTCACGTGATTGT | 0.16
GGGGCCACGTGGAAGG | 0.11
CTGAACACGTGTTGTT | 0.05
AGTGTCACGTGGCATG | -0.08
GTCGTCACGTGGAGCG | 0.16
ATTGTCACGTGTTCGC | 0.05
CGAGGCACGTGTGTTT | -0.09
TGTGTCACGTGTCAGG | 0.07
TATTACACGTGTCATG | 0.17
GCCGTCACGTGGTGGG | 0.06
TTAAGCACGTGATGTT | -0.02
TGATTCACGTGTGATA | 0.25
AGTGTCACGTGTGTCC | 0
GGACGCACGTGATGGA | 0.13
GACTTCACGTGTTGGT | 0.45

Sequence | relative binding free energy [kcal/mol]
GGAAACACGTGAGGGC | 0.34
GTTCACACGTGTGGAG | 0.11
GTTGTCACGTGAGGGG | 0.43
TCGGTCACGTGAGTCT | 0.19
TATAGCACGTGGTTGA | -0.09
GATGGCACGTGTTGAA | 0.07
GCGATCACGTGTATGT | 0.21
CGTCGCACGTGATGGG | -0.09
ATAAGCACGTGGTTAG | -0.28
GTAGACACGTGTAGTT | 0.13
AACTTCACGTGAGGGT | 0.18
GGCGTCACGTGATATG | 0.31
GTTGGCACGTGAAGAG | 0.13
CATCGCACGTGTGGGT | 0.1
GATGGCACGTGGCACG | -0.11
TGGTGCACGTGTGCTT | -0.07
ATTATCACGTGCGGCG | 0.22
TCACTCACGTGTGTTG | 0.23
GTGTGCACGTGACGTG | -0.01
GGATGCACGTGTATGA | 0.21
AGGGTCACGTGGTTAG | 0
AGGCGCACGTGAGGTA | 0.17
GTGCGCACGTGTTAAG | -0.05
AGGGACACGTGCAAGT | 0.07
GTCTGCACGTGGGTCT | -0.18
GTGTACACGTGCTGGC | 0.08

Sequence | relative binding free energy [kcal/mol]
GACATCACGTGTTGTG | 0.06
TTCGTCACGTGAGGTA | 0.24
GAAACCACGTGGGTGT | -0.11
CGAGGCACGTGAGATT | 0.33
TACTGCACGTGGTGAT | -0.17
TGATGCACGTGTAGTC | 0.03
ATGATCACGTGTTTTG | 0.13
TGCGTCACGTGGGATG | 0.02
GGTGACACGTGGTATT | 0.13
GCGATCACGTGGTGAG | 0.31
GAGGTCACGTGGGCTT | 0
GTAGGCACGTGTTAGC | -0.11
CTAGGCACGTGGATAG | -0.13
TAGTACACGTGTTATA | 0.09
ATAGTCACGTGTTCCG | 0.25
CATAGCACGTGGGGTA | -0.33
TTTTCCACGTGTATGG | 0.05
TTTATCACGTGTTCTG | 0.14
GTTTACACGTGTTTTT | 0.26
TTGGTCACGTGCGAAG | 0.13
AGGATCACGTGTGTGC | 0.13
AAGTTCACGTGGCGGC | 0.27
ATTCGCACGTGGGCTG | -0.09
CTGGTCACGTGGGGTA | -0.04
TAAGGCACGTGAGGCT | 0.12
GCGTACACGTGAGGGT | 0.28

Sequence | relative binding free energy [kcal/mol]
TGTATCACGTGTGCGG | 0.19
GGGAACACGTGTCGGA | 0.15
TTTTGCACGTGTTAAC | 0.01
TGGAGCACGTGGTCCT | -0.1
TCAGTCACGTGAGATT | 0.36
TGAGGCACGTGATAGG | -0.03
AGGTACACGTGATTAT | 0.12
TTAATCACGTGAGATG | 0.41
CATTTCACGTGAAATG | 0.35
GGGGGCACGTGATTAA | -0.05
TGTCTCACGTGAGTTC | 0.38
TATAGCACGTGTATAA | -0.04
TGACACACGTGTGTTT | 0.12
GTATGCACGTGGATGG | -0.09
TTTGACACGTGGTCTG | -0.02
AATATCACGTGGTAAG | 0.21
AAGCGCACGTGTTGGG | -0.03
TGAGGCACGTGCATAG | -0.2
CGATGCACGTGGTTTA | -0.13
TTTGACACGTGCCGGG | -0.21
TGGCTCACGTGTAGTC | 0.33
GCGTTCACGTGGGTGC | 0.18
GGTCGCACGTGGCGTG | 0
ATAGGCACGTGAAAGG | -0.01
TTATTCACGTGGTAGC | 0.19
TTAAGCACGTGGTGAA | -0.17

Sequence | relative binding free energy [kcal/mol]
ATTGACACGTGGTTGC | -0.18
AATTCCACGTGGGTTT | -0.04
TAATGCACGTGTCATG | -0.01
TGGTGCACGTGCGCAG | -0.24
GAGTTCACGTGTCTTG | 0.33
TGTAGCACGTGTACGT | -0.07
CGTGTCACGTGTAAAT | 0.33
TGTAACACGTGGTGTG | -0.16
GCTTGCACGTGCGTTG | -0.05
GGATGCACGTGGTCGT | -0.06
GTGATCACGTGCTGGA | 0.13
TTGTACACGTGAGGGT | 0.26
GATTGCACGTGGCGGA | 0.12
TCGTGCACGTGTGGTT | 0.05
TTATCCACGTGATTTG | 0.15
TATAGCACGTGTGGGC | -0.12
GTTCTCACGTGTGCGT | 0.19
TTGTCCACGTGAGTTA | 0.25
TTGACCACGTGCTGGT | -0.02
TAGGTCACGTGGAATA | 0.06
TCGGTCACGTGTGTCG | 0.07
GGGGTCACGTGGCGCG | 0.12
AGTGTCACGTGTCTAT | -0.02
TGTGGCACGTGGCTGA | -0.22
GGAGGCACGTGAGGAG | 0.06
GGATACACGTGGGAAT | 0.12

Sequence | relative binding free energy [kcal/mol]
TGGCGCACGTGTGTCG | -0.07
TCAGTCACGTGGTCTT | 0.04
GCGGGCACGTGGGATT | -0.01
TATTGCACGTGTTTGC | -0.12
TGTCGCACGTGCGGTG | -0.19
CGGGTCACGTGCCGGT | 0.06
TAGTTCACGTGTTAAG | 0.4
AACATCACGTGTGGTG | 0.06
ATATGCACGTGAAGAG | 0.22
TCGGTCACGTGACTGT | 0.12
ACGTTCACGTGATAGT | 0.36
TGCTACACGTGTATAT | 0.21
TAGGGCACGTGGCGCG | -0.24
TTAGACACGTGTAGTC | 0.15
CTGCGCACGTGGGTAG | -0.24
GTATGCACGTGTGGTC | 0.1
CAAGGCACGTGGGTGG | -0.3
AGGGTCACGTGATCGT | 0.16
TGGGGCACGTGTAGCT | 0.04
TGAAGCACGTGGTTGT | -0.02
TGTTGCACGTGTAGCT | 0.03
GTGTACACGTGGGTGG | 0
ATGGGCACGTGGGCAT | -0.23
GCATGCACGTGGGCAG | -0.16
CGGGTCACGTGTTACG | 0.25
CCGGTCACGTGAGGGT | 0.14

Sequence | relative binding free energy [kcal/mol]
TAGCTCACGTGTATTT | 0.22
TGTTACACGTGCGTTT | 0.11
CTGGCCACGTGGCGGG | -0.22
CTGCGCACGTGCGGGT | -0.19
TGGAGCACGTGGTGAA | -0.11
ATGGACACGTGTGAGA | 0.13
TTGAGCACGTGATTCT | -0.01
TAACGCACGTGGGGTT | -0.19
AATGACACGTGTGGGG | 0.13
TTACACACGTGGGGCG | -0.11
AGGCACACGTGATGGG | -0.05
CGTGTCACGTGTCTTA | 0.07
GTTTACACGTGTAGTA | 0.15
GATTTCACGTGTTTTT | 0.35
ATGGGCACGTGCAGGG | -0.15
TTGTCCACGTGGTAGA | 0.07
ATTGTCACGTGTGCCA | 0.16
GGTTGCACGTGAATTG | 0.31
TGATACACGTGTTAAT | 0.01
TGGTACACGTGTTACT | 0.02
TCGATCACGTGATGTG | 0.35
TGTTTCACGTGGCCGT | 0.14
TAATGCACGTGTTGGG | 0.07
TCGTGCACGTGCGGGT | -0.1
TCTCACACGTGATTGG | 0.43
CTCTACACGTGGTTTT | 0.18

Sequence | relative binding free energy [kcal/mol]
AGGTGCACGTGAGTTT | 0.16
TGGAACACGTGTGATA | 0.23
ACGGGCACGTGGTTGG | -0.13
CTGGGCACGTGTCTTT | -0.06
GGTAACACGTGGTTAT | -0.05
GGGTTCACGTGATGAA | 0.32
GTGGTCACGTGAGCAG | 0.38
TGTATCACGTGGGGGG | -0.04
AGGTACACGTGGTGAT | 0.02
TGGAACACGTGGCGGT | -0.12
TATTTCACGTGGTTCA | 0.19
GGTGGCACGTGCTAGT | -0.24
TTTATCACGTGTGGCG | 0.27
TTGGTCACGTGAAAGA | 0.35
TGTATCACGTGGCGTA | -0.11
TTTGCCACGTGGCGGA | -0.1
AGGATCACGTGACGGT | 0.24
AGTGTCACGTGGTGAC | 0.05
AGGTTCACGTGACAGG | 0.22
TCTTACACGTGGAGTG | -0.07
GTTTACACGTGTGCAT | 0.13
AGTGGCACGTGGTATC | -0.28
GACTGCACGTGGTGGC | -0.03
TACGGCACGTGTTTGA | 0
GGTTTCACGTGGAGAA | 0.06
TGTGTCACGTGGTGCG | -0.03

Sequence | relative binding free energy [kcal/mol]
CTTTGCACGTGGAGGG | -0.14
AGGAGCACGTGATGCA | 0.11
TTGCACACGTGGATGT | 0.06
TAATGCACGTGTTTAT | -0.11
TTGCTCACGTGAGTTT | 0.43
TGCTTCACGTGAGGGA | 0.38
AGACGCACGTGGGAAG | -0.03
AGTTACACGTGAGTGG | 0.31
TCTGGCACGTGTATAA | -0.01
TAAATCACGTGTGTTA | 0.13
GTTGTCACGTGGCAGA | 0.13
AAGTTCACGTGGGATC | 0.35
TGCGGCACGTGAAGAT | 0.14
TGAATCACGTGCGTGG | 0.02
TGATACACGTGGTGGC | -0.1
TAGTGCACGTGAAGAG | 0.08
GTTTTCACGTGTTGGA | 0.33
TGCTTCACGTGATGGA | 0.3
TGCGGCACGTGGTATG | -0.14
TGGACCACGTGTGATT | 0.02
GGGTGCACGTGCGTTC | -0.04
TTTGACACGTGGATAA | -0.02
